This is an account of results in publication PMC4336329 (PLoS ONE, 2015).

The campaign covered roughly 310,000 compounds. About 2,200 (0.71%) showed an effect of 50% or more. The effect is printed as a negative number. The list shows a part of the results.

In this assay the target is human ether-à-go-go-related gene (hERG) potassium channel (human, UniProt Q12809). The assay can be described thus: primary screen, population patch clamp on CHO cells stably expressing hERG.
Sequence of human ether-à-go-go-related gene (hERG) potassium channel (Q12809 whole entry, looked up): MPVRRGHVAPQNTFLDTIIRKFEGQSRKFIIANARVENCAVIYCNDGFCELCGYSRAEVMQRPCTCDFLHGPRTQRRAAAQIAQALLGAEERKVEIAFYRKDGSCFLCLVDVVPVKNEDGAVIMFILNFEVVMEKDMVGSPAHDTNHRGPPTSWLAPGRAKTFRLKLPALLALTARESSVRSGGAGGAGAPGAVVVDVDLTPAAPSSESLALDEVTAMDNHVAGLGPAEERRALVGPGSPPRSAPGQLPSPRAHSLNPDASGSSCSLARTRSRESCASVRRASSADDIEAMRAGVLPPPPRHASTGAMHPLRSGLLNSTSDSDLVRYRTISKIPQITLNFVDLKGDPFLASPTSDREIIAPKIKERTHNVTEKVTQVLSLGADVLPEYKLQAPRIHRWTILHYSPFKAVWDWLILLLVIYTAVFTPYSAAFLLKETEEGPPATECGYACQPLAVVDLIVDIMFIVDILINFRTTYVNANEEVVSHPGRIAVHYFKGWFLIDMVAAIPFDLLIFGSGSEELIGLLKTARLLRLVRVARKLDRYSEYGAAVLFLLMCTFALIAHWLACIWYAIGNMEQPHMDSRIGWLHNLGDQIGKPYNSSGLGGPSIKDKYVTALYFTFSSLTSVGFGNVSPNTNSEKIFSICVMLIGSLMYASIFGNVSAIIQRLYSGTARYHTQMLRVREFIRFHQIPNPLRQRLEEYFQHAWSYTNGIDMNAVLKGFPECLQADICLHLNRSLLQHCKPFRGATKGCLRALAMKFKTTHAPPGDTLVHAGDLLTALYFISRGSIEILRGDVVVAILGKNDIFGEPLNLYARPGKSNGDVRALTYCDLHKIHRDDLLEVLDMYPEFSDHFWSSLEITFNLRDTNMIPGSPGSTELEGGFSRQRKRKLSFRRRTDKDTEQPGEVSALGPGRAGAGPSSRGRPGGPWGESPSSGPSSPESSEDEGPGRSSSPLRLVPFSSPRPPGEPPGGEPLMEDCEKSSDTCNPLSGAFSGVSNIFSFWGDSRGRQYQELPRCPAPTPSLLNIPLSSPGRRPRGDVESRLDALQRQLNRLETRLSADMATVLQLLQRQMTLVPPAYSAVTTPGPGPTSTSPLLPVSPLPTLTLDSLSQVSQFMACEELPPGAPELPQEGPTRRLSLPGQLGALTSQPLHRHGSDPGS
On to `O=Cc1cc(CCC(=O)O)ccc1O`, for which the “hERG current change (%, negative = inhibition) at 1uM” value is 9.13%.
Consider `O=C(N/N=C/c1ccc(Cl)cc1)c1ccc2c(c1)OCO2`, for which the “hERG current change (%, negative = inhibition) at 1uM” value is 10.9%.
Turning to `Cc1ccc2c(c1)=C(c1ccccc1)N(O)CC(=O)N=2`, the “hERG current change (%, negative = inhibition) at 1uM” value was found to be 18.8%.
As to `O=C(CNS(=O)(=O)c1ccc(Cl)cc1)NNC(=O)c1cccnc1`, the “hERG current change (%, negative = inhibition) at 1uM” value was 10%.
In the case of `Cc1ccc(S(=O)(=O)N2CCC(=O)N(C(COC(=O)Nc3ccccc3)Cc3ccccc3)CC2)cc1` (centres unmarked), the “hERG current change (%, negative = inhibition) at 1uM” value is reported as 14.7%.
Turning to `COc1ccc2c(C)c(CCC(=O)NCCCN3CCCC3=O)c(=O)oc2c1C`, the “hERG current change (%, negative = inhibition) at 1uM” value is 1.59%.
With `O=C(Nc1cnn(Cc2ccccc2)c1)c1cc2nc(-c3ccco3)cc(C(F)(F)F)n2n1` the figure was 6.86%; with `CCOc1cc(C(=O)Nc2ncccn2)cc(OCC)c1OCC`, 8.97%; with `CCCOc1ccc(C(=O)Nc2ccc(NC(=O)c3cccs3)cc2)cc1`, 14%.
As for `O=C(Nc1cccc(F)c1)N1CCN(C/C=C/c2ccccc2)CC1`, the “hERG current change (%, negative = inhibition) at 1uM” value is listed as -19.1%.
Regarding `O=C(Nc1ncc(Cc2ccccc2Cl)s1)c1ccc(-c2cccc([N+](=O)[O-])c2)o1`, the “hERG current change (%, negative = inhibition) at 1uM” value was determined as 10.7%.
With `COc1ccccc1C1C2=C(CC(C)(C)CC2=O)Nc2nnnn21` (centres unmarked), the “hERG current change (%, negative = inhibition) at 1uM” value turned out to be 19.7%.
`CCOc1ccccc1Nc1ncccc1C(=O)N1CCCC1`: the “hERG current change (%, negative = inhibition) at 1uM” value amounted to 16.9%.
With `CC(=O)Oc1cccc(C(=O)Nc2ccc3c(c2)C(=O)N(CC2CCCO2)C3=O)c1` (centres unmarked) the figure was 8.31%; with `CCN(C1CCCCC1)S(=O)(=O)c1cc(C)ccc1OC`, 13.4%; with `Cc1ccc(S(N)(=O)=O)cc1NC(=O)c1ccc2c3c(cccc13)CC2`, 1.81%.
On to `COc1cccc(CN(C)C(=O)c2csc3c2CCCC3)c1OC`, for which the “hERG current change (%, negative = inhibition) at 1uM” value was determined as 2.1%.
Turning to `Cc1c(-n2c(-c3ccccc3Cl)n[nH]c2=S)c(=O)n(-c2ccccc2)n1C`, the “hERG current change (%, negative = inhibition) at 1uM” value is given as 14.1%.
As for `Clc1c2c(nc3ccccc13)CCC2`, the “hERG current change (%, negative = inhibition) at 1uM” value turned out to be 9.54%.
Take `C=C(C)CSc1nnc(-c2ccc(C)cc2)n1N`: the “hERG current change (%, negative = inhibition) at 1uM” value is on record as 11.3%.
The value for `O=C(c1ccco1)N1CCN(c2ccc(Cl)cc2)CC1` was -5.03%; that for `O=C(Nn1cc(C(=O)Nc2ccc(F)cc2F)c2ccccc2c1=O)c1cnccn1` was 12.8%; that for `COCCCNC(=O)CN(CCc1ccccc1)S(=O)(=O)c1ccc(OC)cc1` was -2.55%.
For the compound `COc1ccccc1/C=C/C(=O)OC(C)CN1CCCCC1.Cl` (centres unmarked), the “hERG current change (%, negative = inhibition) at 1uM” value came to 12.9%.
As for `O=C(CN(c1ccc([N+](=O)[O-])cc1)S(=O)(=O)c1ccccc1)N1CCCCC1`, the “hERG current change (%, negative = inhibition) at 1uM” value is reported as -0.85%.
With `CN(CC(=O)Nc1ccc2c(c1)OCO2)S(=O)(=O)c1cccs1` the figure was 3.55%.
Take `Cc1nn(Cc2ccccc2)c(C)c1C=C1C(=O)NC(=S)NC1=O`: the “hERG current change (%, negative = inhibition) at 1uM” value is 9.9%.
With `Cc1c(S(=O)(=O)Nc2cccc3ccccc23)c(=O)n(C)c(=O)n1C` the figure was 13.2%; with `O=C(O)C(Cl)Cl`, 13.9%; with `CC(=O)N1CCOc2ccc(S(=O)(=O)N3CCN(c4cccc(C(F)(F)F)c4)CC3)cc21`, 11%.
With `Cc1ccc2c(c1)CCCN2C(=O)c1cc(C)on1` the figure was 10.3%; with `Cc1ccc(-c2ccc(CCC(=O)O)n2Cc2ccco2)cc1`, 12%; with `COc1cccc(CNC(=O)CCC2CCCN(C(=O)c3ccccc3N(C)C)C2)c1` (centres unmarked), 15.9%.
Turning to `CC1CCN(S(=O)(=O)c2ccc3c(c2)oc(=O)n3CC(=O)NCc2ccc3c(c2)OCO3)CC1`, the “hERG current change (%, negative = inhibition) at 1uM” value came out at 3.17%.
For `Cc1cc(C)cc(OCC(=O)N(C)CC(=O)Nc2ccc(Cl)c(C(F)(F)F)c2)c1`, the “hERG current change (%, negative = inhibition) at 1uM” value is recorded as 4.18%.
For `COc1ccccc1N1C(=N)S/C(=C\c2ccc(-c3ccccc3C(=O)O)o2)C1=O`, the “hERG current change (%, negative = inhibition) at 1uM” value came to 2.83%.
As for `CCCCCn1c(N)c(C#N)c2nc3ccccc3nc21`, the “hERG current change (%, negative = inhibition) at 1uM” value is recorded as -4.34%.
For the compound `Cc1cccc(C(C(=O)NC2CCCC2)N(C(=O)c2csnn2)C2CCCC2)c1` (centres unmarked), the “hERG current change (%, negative = inhibition) at 1uM” value amounted to 4.1%.
On to `CCCCCCCCn1c(=O)c(C(=O)OCC)c(O)c2ccccc21`, for which the “hERG current change (%, negative = inhibition) at 1uM” value is reported as 12.8%.
With `COc1ccc2c3n(nc2c1)CCN=C3c1ccc(Cl)cc1` the figure was 18.9%; with `CCN(CC)C(=O)c1sc(NC(=O)c2cc(-c3ccc(C)s3)nc3ccccc23)c(C(=O)OC)c1C`, 9.3%; with `CC(OC(=O)C1=Cc2ccccc2OC1)C(=O)NC1CCCC1` (centres unmarked), 3.09%.
Consider `CC1(C)Cc2c(C#N)c(N3CCN(C(=O)c4ccccc4Cl)CC3)nc(-c3ccco3)c2CS1`, for which the “hERG current change (%, negative = inhibition) at 1uM” value was 2.36%.
The value for `COc1ccc(N(C(=O)CCl)C(C)(C(=O)Nc2c(C)cccc2C)c2ccccn2)cc1` (centres unmarked) was 14.9%; that for `O=C(c1cccc(C(F)(F)F)c1)N1CCCC1` was 8.42%.
With `CCCCN=Cc1c(O)n(-c2c(C)cc(C)cc2C)c(=O)[nH]c1=O`, the “hERG current change (%, negative = inhibition) at 1uM” value is -17.4%.
As for `COc1ccc(N2CCN(C(=O)CNS(=O)(=O)c3ccc(C)c(C)c3)CC2)cc1`, the “hERG current change (%, negative = inhibition) at 1uM” value is 4.24%.
Take `O=c1cc2c(nn1Cc1cccc(Cl)c1)-c1ccccc1CC2`: the “hERG current change (%, negative = inhibition) at 1uM” value is 2.03%.
In the case of `COc1ccc(CCNC(=O)CNS(=O)(=O)c2ccc(Br)s2)cc1OC`, the “hERG current change (%, negative = inhibition) at 1uM” value came out at 1.45%.
The value for `CCC(C)OC(=O)n1ccc(C(=O)Nc2nccs2)n1` (centres unmarked) was -8.67%; that for `CCCCn1c(O)c(C=NC2CCCCC2N)c(=O)[nH]c1=O` (centres unmarked) was 5.96%.
As to `O=C(N/N=C/c1sc(N2CCOCC2)nc1-c1ccccc1)c1ccc(O)cc1`, the “hERG current change (%, negative = inhibition) at 1uM” value was 0.833%.
With `COc1ccccc1OCc1ccc(C(=O)Nc2cc(OC)c(OC)c(OC)c2)o1`, the “hERG current change (%, negative = inhibition) at 1uM” value was determined as 10.7%.
The value for `COc1ccc(NC(=O)C(Sc2nnc3ccccn23)c2ccccc2)cc1Cl` (centres unmarked) was 13%; that for `CC1CN(Cc2nc3c(c(=O)[nH]c(=O)n3C)n2CCCc2ccccc2)CC(C)O1` (centres unmarked) was -2.44%; that for `Cc1ccc(/C=C/C(=O)Nc2ccccc2C(N)=O)cc1` was 9.91%.
In the case of `CCOC(=O)/C=C/C(=O)OCC(=O)NC(c1ccccc1)c1ccccc1`, the “hERG current change (%, negative = inhibition) at 1uM” value is 7.48%.
Consider `Cc1nc2c(oc3ccccc32)c(=O)o1`, for which the “hERG current change (%, negative = inhibition) at 1uM” value turned out to be 6.33%.
Regarding `CCOc1ccccc1NC(=O)CSCC(=O)Nc1ccccc1`, the “hERG current change (%, negative = inhibition) at 1uM” value came to 3.87%.
On to `CC(C)(C)c1cc(C(F)(F)F)nc(SCCCNC(=O)c2ccco2)n1`, for which the “hERG current change (%, negative = inhibition) at 1uM” value turned out to be 8.11%.
Regarding `CCOc1ccccc1-n1nnnc1SCc1nc2ccccc2s1`, the “hERG current change (%, negative = inhibition) at 1uM” value was found to be 5.79%.
As for `Cc1ccc2nc(NC(=O)c3ccc(Cn4cc(Cl)cn4)o3)sc2c1`, the “hERG current change (%, negative = inhibition) at 1uM” value stood at 13.5%.
The value for `COc1ccc(S(=O)(=O)N2CCCCCC2)cc1C(=O)N1CCN(c2ccccc2O)CC1` was -4.41%.
As to `COc1ccc(N(C(=O)c2ccco2)S(=O)(=O)c2cccs2)cc1`, the “hERG current change (%, negative = inhibition) at 1uM” value was 16%.
With `CCn1c(N2CCN(CC(=O)c3c[nH]c4ccccc34)CC2)nc2c1c(=O)[nH]c(=O)n2C` the figure was -3.12%.
Regarding `CCOc1ccc(C2C(C#N)=C(N)N(N(C)C)C3=C2C(=O)CC(C)(C)C3)cc1` (centres unmarked), the “hERG current change (%, negative = inhibition) at 1uM” value is given as 7.08%.
In the case of `Cc1ccc(/C=C/C(=O)O)cc1S(=O)(=O)N1CCc2ccccc21`, the “hERG current change (%, negative = inhibition) at 1uM” value is 10.2%.
The value for `O=C(NCc1cccnc1)Nc1cccc(NC(=O)NCc2cccnc2)c1F` was 4.47%; that for `COc1ccc(OCC(=O)NNC(=O)c2ccc(-c3ccccc3)cc2)cc1` was 13%.
Regarding `Cn1c(=O)[nH]c(=O)c2c1nc(NCCCO)n2Cc1ccc(F)cc1`, the “hERG current change (%, negative = inhibition) at 1uM” value was 12.2%.
As for `CCN(CC)S(=O)(=O)c1ccc(-c2ccc(S(=O)(=O)N(CC)CC)cc2)cc1`, the “hERG current change (%, negative = inhibition) at 1uM” value stood at 6.99%.
In the case of `Cc1nc(CSc2nc3[nH]ncc3c(=O)n2-c2ccccc2)cs1`, the “hERG current change (%, negative = inhibition) at 1uM” value stood at 9.11%.
On to `O=C(CSc1nnc2scc(-c3ccccc3)n12)Nc1ccc2c(c1)OCCO2`, for which the “hERG current change (%, negative = inhibition) at 1uM” value is on record as 6.45%.
As to `COc1ccc(Nc2ncnc3c2cnn3Cc2ccccc2)cc1OC`, the “hERG current change (%, negative = inhibition) at 1uM” value worked out at 2.42%.
For the compound `COc1cc(C)ccc1OCCOc1c(C)cc(Cl)cc1Cl`, the “hERG current change (%, negative = inhibition) at 1uM” value worked out at 11.8%.
As to `CCOc1cc(-c2nc3ccccn3c2NCC2CCCO2)ccc1O` (centres unmarked), the “hERG current change (%, negative = inhibition) at 1uM” value is -8.77%.
Turning to `COc1ccc(NC(=O)N2CCCC2)cc1OC`, the “hERG current change (%, negative = inhibition) at 1uM” value is -3.37%.
`Cc1cc(C(=O)CC#N)c(C)n1CC(F)(F)F`: the “hERG current change (%, negative = inhibition) at 1uM” value was -0.956%.
For `CCOC(=O)C(Cc1ccccc1)C(=O)Nc1cccc(C)c1` (centres unmarked), the “hERG current change (%, negative = inhibition) at 1uM” value was 14.3%.
As to `COc1ccc(C2=NOC(C(=O)Nc3ccc4c(c3)OCCO4)C2)c(OC)c1` (centres unmarked), the “hERG current change (%, negative = inhibition) at 1uM” value is recorded as 4.25%.
As to `COC(CNC(=O)c1ccc(CS(=O)(=O)c2ccccc2)o1)OC`, the “hERG current change (%, negative = inhibition) at 1uM” value was found to be 6.89%.
With `CN(C)S(=O)(=O)c1ccc2nnn(OCC(=O)NC34CC5CC(CC(C5)C3)C4)c2c1` the figure was -1.32%; with `Cc1noc(C)c1C(=O)N1CCCC1`, -0.0053%; with `c1cncc(CSc2nnc3ccc(-c4ccco4)nn23)c1`, 13.6%.
On to `COc1ccc(N2C(=O)CCC2=O)cc1`, for which the “hERG current change (%, negative = inhibition) at 1uM” value is 16.6%.
The value for `O=C(NCCc1ccccc1)C1CCCN1S(=O)(=O)c1ccccc1` (centres unmarked) was -0.554%; that for `COc1ccc(N2CC(C(=O)NCCc3c[nH]c4ccccc34)CC2=O)cc1` (centres unmarked) was 3.42%; that for `CCCn1c(C)cc(/C=C(\C#N)C(=O)OCC(=O)Nc2cccc(S(N)(=O)=O)c2)c1C` was 4.62%.
Take `COc1cccc(/C=N/n2c(CO)nc3ccccc32)c1OC`: the “hERG current change (%, negative = inhibition) at 1uM” value turned out to be 21.1%.
